# Assay results taken from PubChem BioAssay AID1745853 (National Center for Advancing Translational Sciences (NCATS), 2022).
# Some of the results follow. These are further read-outs of the screen, such as a control signal, another cell line or another target. No call is given for them.
# Assays:
# Assay in all cases: Primary Screen for Target Class Profiling of Small Molecule Inhibitors of Methyltransferases
# [1] = target: Glycine N-methyltransferase (Homo sapiens) (UniProt Q14749); conditions: purified enzyme, MTase-Glo SAH luminescence; measured here: GNMT inhibition; at 40 µM; stronger effect = lower value
# Method in brief: (§1)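 Each enzyme was assayed with SAM and its substrate. SAH formation detected by MTase-Glo luminescence; single-point 40 uM screen[…].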
# [2] = target: Guanidinoacetate N-methyltransferase (Homo sapiens) (UniProt Q14353); conditions: purified enzyme, MTase-Glo SAH luminescence; measured here: GAMT inhibition; at 40 µM; stronger effect = lower value
# Method in brief: as §1
# [3] = target: Histamine N-methyltransferase (Homo sapiens) (UniProt P50135); conditions: purified enzyme, MTase-Glo SAH luminescence; measured here: HNMT inhibition; at 40 µM; stronger effect = lower value
# Method in brief: as §1
# [4] = target: Nicotinamide N-methyltransferase (Homo sapiens) (UniProt P40261); conditions: purified enzyme, MTase-Glo SAH luminescence; measured here: NNMT inhibition; at 40 µM; stronger effect = lower value
# Method in brief: as §1
# [5] = target: Phenylethanolamine N-methyltransferase (Homo sapiens) (UniProt P11086); conditions: purified enzyme, MTase-Glo SAH luminescence; measured here: PNMT inhibition; at 40 µM; stronger effect = lower value
# Method in brief: as §1
# % is set by controls: 0 for no effect and ±100 for the full control effect.
Compound,"activity change, negative = inhibition [1] [%]","activity change, negative = inhibition [2] [%]","activity change, negative = inhibition [3] [%]","activity change, negative = inhibition [4] [%]","activity change, negative = inhibition [5] [%]"
Cc1nnn2c(C(=O)NCc3ccc(Cl)cc3)cccc12,-16.9,-9.98,-7.26,-22.6,-10.3
CC[C@H]1CN(C(=O)NC(C)C)CC[C@H]1CC(=O)N(C)CCC#N,-5.45,-5.28,-3.58,-7.54,-7.6
O=C(c1ccccc1)N1CC2(CCCN2Cc2cccnc2)Cc2ccccc21 (configuration not stated),-6.28,-8.95,-8.82,-12.6,-2.88
Cc1ccc(C)c(N2CCN(C(=O)c3ccc4c(=O)nc5c(-c6ccccc6)n[nH]n5c4c3)CC2)c1,-21.3,2.75,-0.002,-7.35,-3.12
Cc1noc(C)c1CCCNC(=O)c1ccc(NC[C@H]2C[C@H]3C=C[C@H]2C32CC2)nc1,-3.52,-3.58,-21,-10.9,-1.98
CN(Cc1ccc(F)cc1)C1CCCc2ccccc21 (configuration not stated),-1.57,-0.95,-2.98,-5.78,-1.66
COc1cc(C2c3cc4c(c(O)c3CC(CO)C2C(=O)O)OCO4)cc(OC)c1O (configuration not stated),6.61,3.61,10.7,-7.17,2.08
NC(Cc1c[nH]c2ccc(O)cc12)C(=O)O (configuration not stated),-6.04,5.36,-27,-9.17,5.36
CCCn1c(=O)c2ccccc2n2c(=O)n(CC(=O)c3ccc(Br)cc3)nc12,4.26,0,10.7,5.88,4.26
CC(=O)NC1(C)CN(Cc2ccc(-c3cccc(F)c3)s2)C1,-2.64,-1.34,-15.6,-2.02,-0.172
O=C(CCc1nnc2n(Cc3ccc(Cl)cc3)c(=O)c3ccccc3n12)NCC1CCCO1 (configuration not stated),-2.95,1.54,2.14,8.6,-1.95
CCn1ccc(C(=O)N2[C@@H]3CC[C@H]2CC(NC(=O)c2ccc(F)cc2)C3)n1 (some centres not stated),0.228,0.67,2.74,-0.997,6.73
CC(C)NC(=O)N[C@H]1C[C@H]2C(=O)NC[C@@H](CCC(=O)N3CCN(c4ccccn4)CC3)N2C1,-4.4,-5.32,-0.883,-2.97,-12.3
CC(C)Cn1nc(CNC(=O)c2ccccc2C(F)(F)F)c2ccccc21,3.11,2.56,1.78,-1,5.09
CC(C)CCNC(=O)C1(C)Cn2c(ccc2-c2ccco2)C(=O)N1CCCc1ccccc1 (configuration not stated),-10.7,0,2.02,-1.61,-3.89
Cc1c(Cl)cccc1NC(=O)N1CCCC1c1nncn1-c1ccccc1 (configuration not stated),-4.11,-4.23,-1.5,-9.5,-4.84
CN1C(=O)c2cc(C(=O)Nc3ccc(F)cc3F)nn2CC1(C)C(=O)NC1CCCCCC1 (configuration not stated),-0.959,1.94,-1.29,2.23,1.2
CCC(C)N1C(=O)c2cc3sccc3n2CC1(C)C(=O)NC1CCCCCCC1 (configuration not stated),-3.5,5.07,-4.85,-1.39,-1.49
COc1ccc(CCNC(=O)Cn2ccc3cc(S(=O)(=O)N4CCCCC4)ccc32)cc1OC,-6.25,4.88,6.92,-0.246,3.77
CO[C@H]1O[C@@H]2O[C@@]3(C)CCC4[C@H](C)CCC([C@H]1C)[C@]42OO3 (some centres not stated),4.03,–,12.9,–,–
CC1C(=O)N(C)C(=O)c2nc[nH]c21 (configuration not stated),3.49,11.1,8.71,-5.49,1.13
CC1CCN(S(=O)(=O)c2ccc3c(ccn3CCC(=O)NC3CCCc4ccccc43)c2)CC1 (configuration not stated),0.567,3.86,-5.26,-6.85,-3.66
O=C(NC1CCC1)c1ccc2nccn2c1,-4.09,-3.88,-4.28,-7.86,-4.22
O=C(Nc1cc(F)ccc1F)N1Cc2c(sc3c2CCCC3)-n2cccc2C1c1cccc(F)c1 (configuration not stated),0.483,1.84,9.01,8.14,10.1
Cc1cc2c(cc3n2CC(C)(C(=O)NC2CCCCC2)N(CC(C)c2ccccc2)C3=O)o1 (configuration not stated),-1.22,0,-6.23,-1.42,-3.85
CCn1c(C(=O)N(C2CC2)C2CC2)cc2c3c(ncn3C)c(Nc3cc(C)n(C)n3)nc21,-17.9,-3.89,-16.7,-18.4,-15.1
O=C1CN(Cc2cccc(F)c2)S(=O)(=O)c2ccccc2N1Cc1ccc(F)cc1,-3.89,-8.15,3.52,-12.1,-6.93
Cc1cn2nc(C(=O)Nc3cccc(F)c3C)cc2c(N2CCCC2)n1,-4.51,-5.3,-33.5,-9.6,-13.3
O=C(Nc1ccc(F)cc1F)N1Cc2c(sc3c2CCCC3)-n2cccc2C1c1cccc(F)c1 (configuration not stated),4.28,0,5.84,2.48,7.5
